Laboratory results reported in the supplement of paper PMC10126150.
Sequences with one replicate were seen in a single cluster, so their values are uncertain.

Tested on: ATP
Experiment: switch fluorescence ratio, 500 uM ATP over buffer (Cy3 cluster intensity, sum of 5 cycles each) (fold (ratio)); higher = stronger signal-on switching upon ATP binding; sequences stand for … in TCGTCGGCAGCGTCAGATGTGTATAAGAGACAGTTTTTTTTTTTTTTTTTTTTTTTTT…TC
Settings: aptamer strand: ATP DNA aptamer (quencher-CACCTGGGGGAGTATTGCGGAGGAAGG + anchor), 100 nM annealed; ATP concentration: 500 uM; one replicate
Outline: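 Between each of five buffer/ATP cycles, the flow-cell was stripped with NaOH and re-annealed. Each cycle imaged Cy3-labelled switching-strand clusters, annealed to 100 nM quencher-labelled ATP aptamer on a modified Illumina MiSeq flow-cell, first in selection buffer and then after 15 min with 500 uM ATP at 22 °C. The fluorescence ratio is summed target-cycle over summed buffer-cycle Cy3 intensity per cluster, averaged per switch-domain sequence, with clusters outside 100-1000 RFU excluded.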
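Also: ATP exposure 15 min at 22 °C before imaging.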

| Sequence | switch fluorescence ratio |
| --- | --- |
| TATCTGAT | 0.986 |
| TTCGGCGTAC | 1.12 |
| CAAAGAACGG | 1.04 |
| GGAGAAGAT | 1.04 |
| TGCTTTGAGG | 1.01 |
| TCCTGCTGAT | 0.993 |
| AGCACTGATG | 1.02 |
| AGCTAAGGTG | 2.39 |
| TCGGGAAGTC | 1.03 |
| CTATTAGTGG | 0.999 |
| AGTGAAGGAA | 0.958 |
| TCCACGTGCC | 1.03 |
| TGATTTAAGA | 1 |
| GGGATCCATT | 0.996 |
| GTCGTTATAT | 1.06 |
| GCTCCCAAGT | 1.84 |
| CAGAATTATA | 0.979 |
| CTCGGCCTTC | 1.41 |
| AAGACGGGGG | 0.983 |
| TGACTCCGTT | 1.96 |
| TTACACGAAC | 1.45 |
| CGTTGCTGCT | 0.941 |
| GCGAGGAGAG | 0.98 |

| Sequence | switch fluorescence ratio |
| --- | --- |
| ATGCTAGACT | 0.949 |
| CAATTCATTT | 1.14 |
| CTACGTGTCG | 1.04 |
| ACTTGAGCAC | 2.66 |
| GGCGGACGAG | 0.982 |
| TACGATGGGT | 1.01 |
| ATGCATGCGC | 1.06 |
| ATAATTCCGT | 0.99 |
| TCCTATTGG | 1.03 |
| GTGGAGCGAC | 1.03 |
| AAATCGCTTT | 1.03 |
| AACTATAGCA | 1.06 |
| AGCGGCCGTA | 1.03 |
| CCCTTCTTGT | 1.04 |
| GTGCTCATGC | 0.995 |
| TGAACGGGAT | 1 |
| GCAGTTAATA | 1.06 |
| TATGCTGATG | 0.989 |
| TAGGTATTAA | 1.03 |
| TCGAAAAATA | 1.02 |
| GCCGCCCGTA | 0.966 |
| ACTCCTGGAA | 2.6 |
| CGTGGTTGAC | 1.01 |

| Sequence | switch fluorescence ratio |
| --- | --- |
| CGAACCCGCC | 1.51 |
| TCACTTGTGT | 0.999 |
| GCTACCAGG | 1.47 |
| TCGCTGGGGA | 1.04 |
| GATGTCACG | 1.02 |
| AAACTTACG | 1.34 |
| GTAGGAAGAC | 4.62 |
| TGGGCCGG | 1.15 |
| AGTTTAGAAA | 1.03 |
| TTAATCGGCA | 0.999 |
| CGATTGTAGG | 1.04 |
| CGCGACAGCA | 0.991 |
| ATTCGGGTCA | 0.981 |
| TCTGCGGGTC | 1.15 |
| GAGGTTGACT | 0.986 |
| TTATAGCGCC | 0.999 |
| GGGTTATGTA | 0.977 |
| TATACGGCTC | 1.02 |
| ATATAATCTT | 1.01 |
| TCGTCTTTCT | 1.01 |
| TCTGTGGTTT | 0.975 |
| ACTTTCTGCC | 0.977 |
| TCGAACACGA | 1.05 |

| Sequence | switch fluorescence ratio |
| --- | --- |
| CCATCGGCTT | 1.02 |
| TCGCAAGGAT | 1.08 |
| AGTGCGGTAT | 1.04 |
| GGTTACCCAG | 0.973 |
| AACAGGTGAG | 1.05 |
| AGGGGTCGCT | 1.02 |
| CAGCACATGG | 1.34 |
| ACCTTTTTTA | 1.01 |
| CTAAGCTCGG | 1.02 |
| CGATCTCAC | 1.03 |
| GTAATACGGT | 1.35 |
| TCTCATCCAG | 1.42 |
| CATGGACCAC | 1.01 |
| TAAGAGGTTA | 1.04 |
| GCGCGATCAG | 1.1 |
| TTCGATCCTG | 0.979 |
| TGACAGGGG | 1.05 |
| CGCCGCTATT | 2.68 |
| TCGGATCTTT | 0.982 |
| GGGACTCGTT | 1 |
| GTCTTAGTT | 0.982 |
| GAAGTACCGC | 1.15 |
| ACGTCATTTT | 1.11 |

| Sequence | switch fluorescence ratio |
| --- | --- |
| CCCCTGGCGT | 2.14 |
| TGATACAGCT | 0.966 |
| CCGGAAGCG | 1.79 |
| TACTACTAAT | 1.05 |
| GATCACATAC | 1.61 |
| CTTCTATAA | 0.96 |
| TGGCGGCTCG | 0.991 |
| ATTCGGATTG | 0.965 |
| CCAAATGATC | 1.03 |
| CGATAATACC | 1.27 |
| TACAGAGCAG | 1.21 |
| CTTTAAGTAT | 1.02 |
| CTCCACTGCG | 1.13 |
| TGTCAGAGAC | 1.04 |
| TGAGAATGTG | 1.71 |
| GAGGCTGCTA | 1.04 |
| CGGTGCGGAT | 1.01 |
| CAAGCTAACG | 1.05 |
| GGTCAAGATT | 0.991 |
| CTGACCTGCC | 2.56 |
| CCCAAGACGG | 1.16 |
| GGATTCCGCC | 1.39 |
| AATTAATTTG | 0.999 |

| Sequence | switch fluorescence ratio |
| --- | --- |
| CGGTCTCCCC | 1.03 |
| GGCCGGATAA | 0.99 |
| TTGTTGACGG | 0.967 |
| GCCGTCGACG | 0.971 |
| TTGGACTTTG | 0.996 |
| ATTACTAGTA | 1.02 |
| TACTAATATC | 1.06 |
| TCGGATTTAT | 1 |
| CGTTGATGTT | 0.965 |
| ATCCCCCGAA | 1.04 |
| GCTACTGCTC | 1.04 |
| AGATTTGGCC | 1.03 |
| TGAGAGGACT | 1.01 |
| CTTCTTAATA | 1.03 |
| AGGTCTTTTG | 0.98 |
| CACCAGGAGA | 1.56 |
| AGGAGCGGGA | 0.932 |
| ATGGGGACTG | 1.1 |
| TAAGCGTCTC | 0.995 |
| TGATTCATGC | 1.01 |
| ATCGTTGATA | 0.978 |
| TCCGGGTT | 1.05 |
| TTTACCCGTA | 0.984 |

| Sequence | switch fluorescence ratio |
| --- | --- |
| AGGATCCCGG | 1.05 |
| AAATGCTAAG | 0.98 |
| TGGCACGTCT | 0.994 |
| TGGTCGCGCT | 1.01 |
| GCAACAGTTC | 0.979 |
| TTGTGAGAGC | 1.09 |
| TAAACGCA | 1.12 |
| CGGCCCTGCG | 1 |
| AAAGGACTAG | 1.03 |
| GAGTCTGCTA | 1.69 |
| TAAGGACTAT | 1.04 |
| GTGCTAAATC | 1.09 |
| TCCTACCCGG | 1.02 |
| ACGTCGTCGT | 1 |
| GACAGACTGT | 1.01 |
| TCTTCTTTGG | 0.972 |
| TGGCTTCAGG | 0.991 |
| TATTAAATAA | 1.58 |
| TTTAGTGAC | 1.02 |
